Reference: article PMC12136788
Residue numbers refer to the chain shown, from its start. The list shows a part of the results.

T1: UNK ZnF1-3 (human, UniProt Q9C0B0 31-174)
T1 sequence: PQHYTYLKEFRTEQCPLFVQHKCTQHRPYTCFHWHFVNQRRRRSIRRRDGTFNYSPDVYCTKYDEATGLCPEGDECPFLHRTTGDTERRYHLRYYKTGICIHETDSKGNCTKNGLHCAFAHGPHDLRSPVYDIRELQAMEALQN

B1: chr5:21252845:21252846:+_ENSMUSG00000029017_ENSMUST00000030882|mus_mus|motif|central (ssRNA)
RNA: GGGAGUUCUACAGUCCGACGAUCGUUUGCGACCAUGAGACAGAUCGUGUCUGGAUGGGCCCAACCAACUGCUUCAACAGCGGUUGCAAGGUGCGCCAAUGGCAUCUUGUCAUCCCUCACCCGAAUCUCACUUCCAGUGAACUUCAACAGAGGAUUGAGCAUCA
B2: chr1:39494564:39494565:+_ENSG00000168653_ENST00000372967|hu_mus|FALSE|FALSE (ssRNA)
RNA: GGGAGUUCUACAGUCCGACGAUCAUGCAUUCGCCUCAUCGUUUUGUACCGAAGCAAGCACUCUUCGAAGUCAUCGAACUCUAUCUUGCACUCCUUUUUCGCCCGGGUCCCACCGAUCCCGUGUGCACACUCUAUCCACUCUUUCAACAGAGGAUUGAGCAUCA
B3: chrX:160370135:160370136:+_ENSMUSG00000031367_ENSMUST00000069041|mus_hu|FALSE|FALSE (ssRNA)
RNA: GGGAGUUCUACAGUCCGACGAUCAAUGAAGCGGCUUAGCAAAACAGUAAUACUGACAAGACAUCAUCUUACACCAUGAGCUAACAUGGACAUGAAGGGAGUGACCAUCUACAGUGUGUGAAAUGCCACAAGAAGUCAUCAACACAACAGAGGAUUGAGCAUCA
B4: chr2:32089778:32089779:+_ENSMUSG00000039262_ENSMUST00000036691|mus_mus|motif|central (ssRNA)
RNA: GGGAGUUCUACAGUCCGACGAUCCUAAACAAGCUGCACAGUACACCUUUAGCAUCGUCUGCCCUUUCAAAUAGCUGGUCGGAGUGAAAGACAGAGGGAAGGCCAAAAGAAAAGCAAAGGAAAACAAAAGGACCCUCAAAAAGACAACAGAGGAUUGAGCAUCA
B5: chr10:114190419:114190420:-_ENSG00000023041_ENST00000369405|hu_mus|FALSE|FALSE (ssRNA)
RNA: GGGAGUUCUACAGUCCGACGAUCGACGGCAGGAAUUCAAAGGCAUAUGCAGAAUGGCUUCUGUUUCAAAACGGUAAUAAACAUUUCUGAAGUCAUGGCACUAGGGCAUCUUUGAGGAAAAGAAUACCUUAAGCAGAGUAGGCUCAACAGAGGAUUGAGCAUCA
B6: 14004349_14004469_1688_3pUTR_ENSMUSG00000024420_ENSMUST00000025288|mouse|control|control (ssRNA)
RNA: GGGAGUUCUACAGUCCGACGAUCGGAUUGGCAAACCCAUGAGAACAUCGGAUGUGCUCCUGAAGGGUGUUGAGGUCAUUGACAACUUCGGAACAGAAGUUGCACUGGUAAACAAUGGCAGGCAUGGCCGAAACAAUCAGGCCGCAACAGAGGAUUGAGCAUCA
B7: chrX:98862621:98862622:+_ENSMUSG00000034160_ENSMUST00000044475|mus_hu|mus_mus_mus_hu_False|58_68 (ssRNA)
RNA: GGGAGUUCUACAGUCCGACGAUCCUGCAUCUCCUUUAGAGUGUUUCCCAUAUUAGAGUAGGCAUCAGCAAAUGUAGGACUAAUUCGAAUAGCCUCCUUAUAAUGCAUCAGAGCUUCCUGCAGUUUUCCCUGCUGCUGCAGUACCAACAGAGGAUUGAGCAUCA
B8: chr1:60041781:60041782:+_ENSMUSG00000041040_ENSMUST00000036540|mus_hu|mus_mus_mus_hu_False|78_78 (ssRNA)
RNA: GGGAGUUCUACAGUCCGACGAUCAAGUUUACAAUAGUAAAGUAAAUGCAGUAGUGGAAUGGCAAGUUUUAUUUUCCUUCACAAAAGAAAAUCUUUAUAACCCAGUCCUAGUCUUGGACAUAGUGAAAGCUAUAAAUUCUGACUCAACAGAGGAUUGAGCAUCA
B9: 88103482_88103602_2046_3pUTR_ENSG00000163320_ENST00000309534|human|control|control (ssRNA)
RNA: GGGAGUUCUACAGUCCGACGAUCAGAUCAUUUCCUGAACAUGGCUGAUCUUUAAGAGAACAAUUUCCUCACCCAAAGUUAUGCAGGAUACUGCCAGAUCUCCAAUACAAAAAACCUGCCAGAAUUUCUAGACAAUUGUUUACCCAACAGAGGAUUGAGCAUCA
B10: chr4:25749455:25749456:-_ENSG00000091490_ENST00000264868|hu_hu|hu_hu_hu_mus_False|38_48 (ssRNA)
RNA: GGGAGUUCUACAGUCCGACGAUCGCACUAUGACCUCUAGAAAAAUCCACAGGGGGAAAAAAUGUAAACCAAUGUACAAUGUUAUCGCCCUCCCUGCAUUUCCAGGCUUUGUCUCAAGGCUCCUUCUAGCUGCUGGAUUUGGGACAACAGAGGAUUGAGCAUCA
B11: chr8:117878989:117878990:-_ENSG00000164754_ENST00000297338|hu_hu|hu_hu_hu_mus_True|28_28 (ssRNA)
RNA: GGGAGUUCUACAGUCCGACGAUCCCAGAGGCCCUCGUUUACUGAGGACAAAAUGUGCGUAGAACAUUUUUCUUAUUUGCUAUGAAAUAAGAAGAAACCUGGAUCUCCCGCUGGGAGCGGGAGGGGUGGGUGGCCCGGGGAGGGCAACAGAGGAUUGAGCAUCA
B12: chr10:1038518:1038519:+_ENSG00000107937_ENST00000545048|hu_hu|hu_hu_hu_mus_False|28_108 (ssRNA)
RNA: GGGAGUUCUACAGUCCGACGAUCCAGUCUAUCAUGGUAAUUCUGUUGAGUAAAUUUGACUUUUCUCAUAUAAAAAUGUCGAAUCCGAUGAAUUUGAUAAUGUUUAUGAAUAACGGUUGGAGUCUUUCGUUGAGUCUUGGAUAACAACAGAGGAUUGAGCAUCA
B13: chr1:225611761:225611762:-_ENSG00000143815_ENST00000272163|hu_mus|hu_hu_hu_mus_True|28_38 (ssRNA)
RNA: GGGAGUUCUACAGUCCGACGAUCCCAGGCCAUCGGCCUCUGACCACUUCACCCUCAACAAACUUCCUACUUGGCAUUUUCUAAAAUUAGUCUGGCCCAGGUUCCGGCGGUGACACGGCCACUCCAGGACAGUCACCAGCAGCCCAACAGAGGAUUGAGCAUCA
B14: chr1:225611761:225611762:-_ENSG00000143815_ENST00000272163|hu_mus|hu_hu_hu_mus_True|78_98 (ssRNA)
RNA: GGGAGUUCUACAGUCCGACGAUCCCAGGCCAUCGGCCUCUUACCACUUCACCCUCAGCAAAUUUCCUACUUGGCAUUUUCUAAAAUUAGUCUGGCCGCGCUCCGGCGGGAACUCCAGCCACUCCAGGACAGUCACCAGCAGCCCAACAGAGGAUUGAGCAUCA
B15: chr7:56126341:56126342:+_ENSG00000146731_ENST00000540286|hu_hu|motif|central (ssRNA)
RNA: GGGAGUUCUACAGUCCGACGAUCCAUAUUUCUCCUUUUAGCUCUGCGCAGAGCAACUAUGCCUUCUUUUGAAAGAGCAUCGGAGGAAAAGGGGUCAAUUCCCUUUUGAUUAAUAACAACAAAUCCUUUAUCUGAAUCGCCACACAACAGAGGAUUGAGCAUCA
B16: chr7:65419240:65419241:+_ENSG00000196715_ENST00000360768|hu_mus|FALSE|FALSE (ssRNA)
RNA: GGGAGUUCUACAGUCCGACGAUCGCUGGCCAUCAGUCUUCCUUAGGCUGCAGCUGUCGCUUCCAGGCCUCAUUCAAAUAAACUAGUCGUUUGUAAUUGAUGAUGAGGAGGAGGAAGUUCAGCACAUAUGUGGUGACGCAGAUGCAACAGAGGAUUGAGCAUCA
B17: 90616502_90616622_2646_CDS_ENSMUSG00000008200_ENSMUST00000013759|mouse|control|control (ssRNA)
RNA: GGGAGUUCUACAGUCCGACGAUCAGCUGACUGGCUAUAGAGAACUGGAGAACUACCAAUAGUGGCUGAUCUCUGAACUACCGAAGUACUCAUUUCUGGAGCCUUCCUCUUUACUGCUUUAUUGGAUGGAGGACUAGAGGCAGUCAACAGAGGAUUGAGCAUCA
B18: chr4:148551591:148551592:-_ENSMUSG00000063077_ENSMUST00000060537|mus_hu|mus_mus_mus_hu_False|28_28 (ssRNA)
RNA: GGGAGUUCUACAGUCCGACGAUCACCUGACAAAAUUAAAUAUCCCUGUAAAUUAGACAAUAAGCAGCAGGCAACAAAGUCUUUGCUUUGGAAUAUGUGCCAGGAAAAAUCAUGUUUUUUUUAGAUCUCAAGAGACAGUUCACACAACAGAGGAUUGAGCAUCA
B19: chr9:74984206:74984207:+_ENSMUSG00000034593_ENSMUST00000123128|mus_mus|motif|central (ssRNA)
RNA: GGGAGUUCUACAGUCCGACGAUCACCGAUGAUUCUGUACCUCUUGUCAAAACCAAUUUCAAUAUAUUUUCCAAACCGGCUGCGGUUAUCAUUCCUGGUUGUUUUGGCAUUUCCAAUUGACUCCAUGAUGGGGUUGGAGGCCAACAACAGAGGAUUGAGCAUCA
B20: 44083480_44084318_4348_CDS_ENSG00000142949_ENST00000372413|human|control|control (ssRNA)
RNA: GGGAGUUCUACAGUCCGACGAUCGUACUGAUCACAUUUUACCCGGGACUUCUCCUCCAGCCGUGUCAUCAUGACCACAGUGGCCGUGCGCUGUUCCCACACCAUCCUCCAGAAAUCACCCAUGGUCUCGGGCAGGGGGCCCUGCAACAGAGGAUUGAGCAUCA
B21: chr19:38862730:38862731:-_ENSMUSG00000024999_ENSMUST00000025963|mus_mus|FALSE|FALSE (ssRNA)
RNA: GGGAGUUCUACAGUCCGACGAUCUUUGUAAGUCAUUUCUACAAUGAUAAUAGCUAUUAUAUAAAAUAGUUCUUUAUAACUAUUUAUAAACAUAUACAGUUUUUAUCUGUAAGAAUUUAAGGUGGGCGGUGGUGGCGCACGUCUCAACAGAGGAUUGAGCAUCA
B22: chrX:98862621:98862622:+_ENSMUSG00000034160_ENSMUST00000044475|mus_hu|mus_mus_mus_hu_False|8_48 (ssRNA)
RNA: B7 RNA with U72G, A81G, A87U, A90G, C93U, C96U, C135U

target: T1, UNK ZnF1-3; assay: nsRBNS (natural sequence RNA bind-n-seq); RBNS binding buffer (assumed for nsRBNS): 25 mM Tris pH 7.5, 150 mM KCl, 3 mM MgCl2, 0.01% Triton X-100, 500 ug/ml BSA, 20 U/ml SUPERase-In, 4 C; UNK is unkempt and MSI1 is Musashi-1; names of the RNAs are library labels; protein concentration not given here; high values mean tight binding

Binder	binding signal
B1	0.401 enrichment R
B2	0.652 enrichment R
B3	1.14 enrichment R
B4	2.61 enrichment R
B5	1.86 enrichment R
B6	1.44 enrichment R
B7	1.1 enrichment R
B8	0.648 enrichment R
B9	1.25 enrichment R
B10	1.23 enrichment R
B11	1.04 enrichment R
B12	0.607 enrichment R
B13	1.11 enrichment R
B14	1.34 enrichment R
B15	1.62 enrichment R
B16	0.879 enrichment R
B17	1.74 enrichment R
B18	1.09 enrichment R
B19	0.613 enrichment R
B20	0.815 enrichment R
B21	1.32 enrichment R
B22	0.933 enrichment R
